Measurements as given in the supplement of paper PMC10126150.
Sequences with one replicate were seen in a single cluster, so their values are uncertain.

Test system: ATP
Assay: switch fluorescence ratio, 500 uM ATP over buffer (Cy3 cluster intensity, sum of 5 cycles each) (fold (ratio)); higher = stronger signal-on switching upon ATP binding; sequences stand for … in TCGTCGGCAGCGTCAGATGTGTATAAGAGACAGTTTTTTTTTTTTTTTTTTTTTTTTT…TC
Details: aptamer strand: ATP DNA aptamer (quencher-CACCTGGGGGAGTATTGCGGAGGAAGG + anchor), 100 nM annealed; ATP concentration: 500 uM; one replicate
Summary of the method: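 The fluorescence ratio divides summed target-cycle Cy3 intensity by summed buffer-cycle Cy3 intensity for each cluster and is averaged per switch-domain sequence. Cy3-labelled switching-strand clusters on a modified Illumina MiSeq flow-cell were annealed to 100 nM quencher-labelled ATP aptamer, then imaged in selection buffer and again after 15 min with 500 uM ATP at 22 °C. Five such cycles were run, with NaOH stripping and re-annealing between them, and clusters outside 100-1000 RFU were excluded.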
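Further: ATP exposure 15 min at 22 °C before imaging.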

Row | Sequence | switch fluorescence ratio
1 | TTGTCTCTAA | 0.973
2 | TAGGTTGTTT | 1
3 | TTGCTCTAGT | 1
4 | TAAATCTTCC | 2.65
5 | GAACGCTCTT | 1.04
6 | TAATAAGGCG | 0.985
7 | CAAATTGCGT | 0.989
8 | ATAAATTGAT | 0.995
9 | GCATTCAACT | 0.969
10 | TTCTTGTTGT | 0.974
11 | ACCCCTTCAT | 1.12
12 | CATCGGTTAG | 0.96
13 | TTCGGGCTTT | 0.982
14 | TTAGAAAAGT | 0.968
15 | CATAGGTGTC | 1.04
16 | AACATCAGCA | 0.995
17 | TCTCTGGCTT | 1.13
18 | GCATGGCCAT | 0.993
19 | TACTTCTACG | 1.16
20 | TATAAAATAT | 0.981
21 | ATATTCGCTA | 1.09
22 | CATACCTACT | 1.33
23 | ATCCATTCTT | 1.01
24 | TGCGGTTGCG | 1.02
25 | TGAGTAATGG | 1.1
26 | GATGCGCGTC | 1.02

Row | Sequence | switch fluorescence ratio
27 | CGGCCCGTTC | 1.08
28 | GTGAAGGTTC | 0.996
29 | CGGCGGCGAG | 0.981
30 | TCCTAGGGAT | 0.996
31 | CGCCTTCATT | 0.947
32 | TGCGATTCCC | 1.26
33 | AGATCCGGCC | 0.953
34 | GTGTTAGCG | 1.01
35 | GCTTACAATA | 1.03
36 | TGAAAATT | 0.982
37 | GAAAGGGAGT | 0.951
38 | ATCCAGTACA | 1.03
39 | TTAGGGGGA | 1.01
40 | ACTGTTTTTG | 0.976
41 | GACTCCAAGC | 1.46
42 | TCCGTTTTGT | 1.03
43 | AGCTCGCTAC | 1.38
44 | ACCTGAGGTA | 1.03
45 | AGCAATCTTC | 3.87
46 | ATGCTTTGGA | 1.04
47 | CGTGTTACTA | 0.988
48 | GCCTAAAGC | 0.963
49 | CCATAATCTG | 1.01
50 | GCGGAATGGT | 1.09
51 | AACTTGGCCT | 1.04
52 | TGAGGTGGGA | 1.01

Row | Sequence | switch fluorescence ratio
53 | CCTCCACGAG | 3.53
54 | GCATAAAGTA | 0.975
55 | CTGTTACTTG | 0.983
56 | CTTTTATAAC | 1.01
57 | TTTCAAGTTA | 1.04
58 | GCTTGGAATA | 1.09
59 | CGGTATGATG | 0.948
60 | TTTGGAAAGA | 1.01
61 | CTATAAATAT | 1.02
62 | AAATACATTC | 0.966
63 | AGTAGAGAG | 1.02
64 | CCTAGGGTAT | 1.02
65 | GCCTCGTGAG | 0.995
66 | GGCTTACATT | 0.969
67 | AGAACAGCGC | 1.04
68 | CGCGAGGAGG | 1.05
69 | TAGCCATCTT | 0.989
70 | GAAGGGATAA | 1.06
71 | TACGTCAAGG | 1.12
72 | ACAATGTTGC | 0.983
73 | CGATAGGTTG | 0.938
74 | TCTGGGATCA | 0.977
75 | AGATCGCTA | 0.978
76 | AGCCTGACAA | 1.08
77 | GGGTGCCGCA | 1.02
78 | TCGCATTGTG | 1.01

Row | Sequence | switch fluorescence ratio
79 | ATTTGGTATA | 1.01
80 | GGGACAGTGC | 1.04
81 | ATCGGTTATC | 0.984
82 | TATTTGAGCG | 0.987
83 | TTCGAGTTTC | 0.975
84 | AGGGGGAAG | 1.02
85 | CGGTGCTAGT | 1.02
86 | AAAAGACGT | 1.03
87 | TAGCTGGGAT | 1
88 | GTTGGACTCC | 1.02
89 | GTAATATGGA | 1.01
90 | GTGGGTGTTG | 1.02
91 | ATACTTGGGT | 1
92 | GGTGTGTAGG | 1.01
93 | AATTTTAAGA | 0.934
94 | CCTAGGCCAC | 1.77
95 | ACGTTGGCTA | 2.02
96 | CCACCCCAGC | 1.24
97 | CGAGGACTGG | 0.997
98 | GAAGTAGTCT | 0.972
99 | GCAGGTATAT | 1.02
100 | CCGCTGAATT | 1.03
101 | CGGCACATGG | 1.16
102 | GTGGGTACAG | 0.993
103 | CGGAAAACTA | 1.08
104 | ATTGGAACCG | 1.03

Row | Sequence | switch fluorescence ratio
105 | GGACGGAAGG | 0.979
106 | CAAGGTACGT | 1.06
107 | TTTTGGACAC | 0.974
108 | CGTCGGCAGC | 0.998
109 | TGATGGAGTT | 0.971
110 | TCTGAAATGC | 2.67
111 | GCAGTTTTTA | 1.01
112 | GCGCAGCG | 1.02
113 | TCGCGACACG | 1.08
114 | ATGATATGCT | 0.994
115 | GCTTTCCCCA | 1.08
116 | GAGCAACGTG | 1.07
117 | CTCACAGCC | 1.17
118 | TGACACGTTT | 1
119 | GGTGATGGCT | 0.889
120 | TAAGTGTACA | 1
121 | AGGCTGCTCG | 0.979
122 | CCTTGACAAT | 2.12
123 | AGTCGCTCT | 0.982
124 | AGGGGCAACC | 1.12
125 | AGTTTAGCAG | 0.972
126 | AATTTCGGC | 0.967
127 | GTGTTAGTAG | 1
128 | AGGAGATGTG | 0.993
129 | CGACATCTAC | 1.84
130 | GTTCTTTCAT | 1.04

Row | Sequence | switch fluorescence ratio
131 | ATCTACTGTT | 1.03
132 | AAGGGCCCGG | 0.999
133 | AGAAGGGGAG | 0.945
134 | CCTTCTGATG | 1.79
135 | GTCTCATGTG | 1.04
136 | TCACTATCTT | 1
137 | ATCAACTCTG | 1.02
138 | TGGGTCCGAT | 0.969
139 | AATATAATGA | 1
140 | CATAAATCTT | 1.04
141 | CCACAGAGAT | 1.09
142 | ACGTTGCTAG | 0.988
143 | AATGGGGCTA | 0.998
144 | CTTCTTACTT | 0.99
145 | GAAGTCGATA | 1.11
146 | GTAGGAAAGT | 0.985
147 | ACACGAGGGG | 1.04
148 | TAGGGAACAG | 0.999
149 | AGATAGCCGC | 1.03
150 | ACGGTACGTT | 1.05
151 | GAGTGCCTGC | 1.04
152 | AGCTATGTCC | 1.06
153 | CTCTAAAGGT | 1.05
